Assay results reported in a collection of fitness landscapes (doi:10.1016/j.celrep.2020.107928).
Whole data set: some 81,000 sequences, median “one-hybrid fitness for binding parS DNA” near -0.17, cut for the highest 2% near 0.51. Some of the results follow.

B1: Caulobacter ParB omega fusion; a variant is named by its letters at X, in order, B8GW30 (parent)
chain: MESVVVGEPGMSEGRRGLGRGLSALLGEVDAAPAQAPGEQLGGSREAPIEILQRNPDQPRRTFREEDLEDLSNSIREKGVLQPILVRPSPDTAGEYQIVAGERAWRAAQRAGLKTVPIMVRELDDLAVLEIGIIENVQRADLNVLEEALSYKVLMEKFERTQENIAQTIGKSXSHVANXMRLLXLPDEVQSYLVSGELTAXHARAIAAAADPVALAKQIIEGGLSVRETEALARKAPNLSAGKSKGGRPPRVKDTDTQALESDLSSVLGLDVSIDHRGSTGTLTITYATLEQLDDLCNRLTRGI

Variants of: B1
Assay: one-hybrid fitness for binding parS DNA (scaled: cognate 1, non-cognate 0); higher = stronger binding
Conditions: with parS DNA site
Procedure, shortened: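 Pre- and post-selection plasmids were Illumina-sequenced, three replicate libraries were pooled, and any variant with under 10 reads was removed. The libraries were Caulobacter ParB with four specificity codons randomised, selected in E. coli USO through a HIS3 reporter whose site is 19 bp from the promoter. Cells grew 48 hours at 37°C on M9 without histidine, with 0.1 mM IPTG and 5 mM 3-AT. Fitness is the log change in variant-to-wild-type read ratio, rescaled against cognate and non-cognate.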

Row | Variant | one-hybrid fitness for binding parS DNA
1 | QDQC | ≤ 0.2
2 | DTKN | ≤ 0.2
3 | YKSR | ≤ 0.2
4 | VSYI | ≤ 0.2
5 | SLSK | ≤ 0.2
6 | PDME | ≤ 0.2
7 | KPHM | ≤ 0.2
8 | VALG | ≤ 0.2
9 | PRCF | ≤ 0.2
10 | WMPP | ≤ 0.2
11 | MPNM | ≤ 0.2
12 | MEKW | ≤ 0.2
13 | HSWP | ≤ 0.2
14 | RALR | ≤ 0.2
15 | YTIL | ≤ 0.2
16 | SLFE | ≤ 0.2
17 | YHAN | ≤ 0.2
18 | PTVI | ≤ 0.2
19 | DIRV | ≤ 0.2
20 | QIAH | ≤ 0.2
21 | HPEG | ≤ 0.2
22 | YPVL | ≤ 0.2
23 | PQMR | ≤ 0.2
24 | VMQC | ≤ 0.2

Row | Variant | one-hybrid fitness for binding parS DNA
25 | WRKC | ≤ 0.2
26 | FSVC | ≤ 0.2
27 | QLNT | ≤ 0.2
28 | RMLW | 0.295
29 | TLWS | ≤ 0.2
30 | HLQL | ≤ 0.2
31 | REVW | ≤ 0.2
32 | NQWL | ≤ 0.2
33 | PRQC | ≤ 0.2
34 | LLWC | ≤ 0.2
35 | SGIR | ≤ 0.2
36 | GCTT | ≤ 0.2
37 | RMYQ | 0.205
38 | HRYC | 0.25
39 | HLPN | ≤ 0.2
40 | VQSM | ≤ 0.2
41 | RYAH | ≤ 0.2
42 | EINM | ≤ 0.2
43 | QMQM | ≤ 0.2
44 | TVSN | ≤ 0.2
45 | KTAL | ≤ 0.2
46 | MPQS | ≤ 0.2
47 | DRIF | ≤ 0.2
48 | RINQ | ≤ 0.2

Row | Variant | one-hybrid fitness for binding parS DNA
49 | KAWC | ≤ 0.2
50 | CTKS | ≤ 0.2
51 | QMGK | ≤ 0.2
52 | SASW | ≤ 0.2
53 | VAPM | ≤ 0.2
54 | VASV | ≤ 0.2
55 | RFHL | ≤ 0.2
56 | LTIP | ≤ 0.2
57 | WQMC | ≤ 0.2
58 | GGVF | ≤ 0.2
59 | PAMN | ≤ 0.2
60 | CFAW | ≤ 0.2
61 | RHMW | ≤ 0.2
62 | TQDK | ≤ 0.2
63 | WFSV | ≤ 0.2
64 | RIMD | 0.234
65 | HNFA | ≤ 0.2
66 | RRKA | 0.532
67 | EGRC | ≤ 0.2
68 | FHMR | ≤ 0.2
69 | TGCY | ≤ 0.2
70 | SRVT | ≤ 0.2
71 | HRMW | ≤ 0.2
72 | NQCI | ≤ 0.2

Row | Variant | one-hybrid fitness for binding parS DNA
73 | TSQV | ≤ 0.2
74 | HCWG | ≤ 0.2
75 | RALW | 0.261
76 | RYSP | ≤ 0.2
77 | GLTW | ≤ 0.2
78 | CPPH | ≤ 0.2
79 | RQCQ | ≤ 0.2
80 | LRIV | ≤ 0.2
81 | FKNT | ≤ 0.2
82 | LINL | ≤ 0.2
83 | RQCK | ≤ 0.2
84 | SYSS | ≤ 0.2
85 | CLPT | ≤ 0.2
86 | MNNR | ≤ 0.2
87 | SSPC | ≤ 0.2
88 | FLPA | ≤ 0.2
89 | TYIR | ≤ 0.2
90 | TLDD | ≤ 0.2
91 | AGSG | ≤ 0.2
92 | TLLK | ≤ 0.2
93 | SPFT | ≤ 0.2
94 | YQNT | ≤ 0.2
95 | FEKY | ≤ 0.2
96 | LNSD | ≤ 0.2

Row | Variant | one-hybrid fitness for binding parS DNA
97 | IHPV | ≤ 0.2
98 | EKFS | ≤ 0.2
99 | VNHM | ≤ 0.2
100 | YYNG | ≤ 0.2
101 | RPNS | ≤ 0.2
102 | SAFV | ≤ 0.2
103 | FISG | ≤ 0.2
104 | ILPW | ≤ 0.2
105 | LEPK | ≤ 0.2
106 | PVAA | ≤ 0.2
107 | DLKK | ≤ 0.2
108 | PHFE | ≤ 0.2
109 | VLML | ≤ 0.2
110 | VPPG | ≤ 0.2
111 | GWHR | ≤ 0.2
112 | EQVF | ≤ 0.2
113 | CRAK | ≤ 0.2
114 | NGQP | ≤ 0.2
115 | CSIK | ≤ 0.2
116 | RYLK | ≤ 0.2
117 | STIG | ≤ 0.2
118 | YFKY | ≤ 0.2
119 | ARSY | ≤ 0.2
120 | PSIE | ≤ 0.2

Row | Variant | one-hybrid fitness for binding parS DNA
121 | YHSS | ≤ 0.2
122 | IAVR | ≤ 0.2
123 | GAVV | ≤ 0.2
124 | DSPA | ≤ 0.2
125 | FAKM | ≤ 0.2
126 | QIRP | ≤ 0.2
127 | KTMH | ≤ 0.2
128 | VEKS | ≤ 0.2
129 | QEAC | ≤ 0.2
130 | MKYL | ≤ 0.2
131 | QEQD | ≤ 0.2
132 | WARQ | ≤ 0.2
133 | HDHG | ≤ 0.2
134 | QQGV | ≤ 0.2
135 | GRCV | ≤ 0.2
136 | VPPI | ≤ 0.2
137 | VLAV | ≤ 0.2
138 | QYHK | ≤ 0.2
139 | PWTV | ≤ 0.2
140 | DSGR | ≤ 0.2
141 | KHRC | ≤ 0.2
142 | SRTE | ≤ 0.2
143 | ECNL | ≤ 0.2
144 | DMEP | ≤ 0.2

Row | Variant | one-hybrid fitness for binding parS DNA
145 | PWYR | ≤ 0.2
146 | IHHT | ≤ 0.2
147 | KELC | ≤ 0.2
148 | TPEF | ≤ 0.2
149 | RWMD | ≤ 0.2
150 | GPKR | ≤ 0.2
151 | RIDN | 0.388
152 | SFCM | ≤ 0.2
153 | IGLS | ≤ 0.2
154 | QKIN | ≤ 0.2
155 | FIAS | ≤ 0.2
156 | DSDR | ≤ 0.2
157 | DYYL | ≤ 0.2
158 | QMYY | ≤ 0.2
159 | TLMM | ≤ 0.2
160 | TWSY | ≤ 0.2
161 | TCQR | ≤ 0.2
162 | NQCR | ≤ 0.2
163 | CDET | ≤ 0.2
164 | ASPQ | ≤ 0.2
165 | NVSV | ≤ 0.2
166 | NQWS | ≤ 0.2
167 | QCHT | ≤ 0.2
168 | PMYE | ≤ 0.2

Row | Variant | one-hybrid fitness for binding parS DNA
169 | LDQG | ≤ 0.2
170 | VKEL | ≤ 0.2
171 | QERT | ≤ 0.2
172 | QCLR | ≤ 0.2
173 | LFEC | ≤ 0.2
174 | PGLR | ≤ 0.2
175 | YHYM | ≤ 0.2
176 | AESR | ≤ 0.2
177 | RTSE | ≤ 0.2
178 | MSKE | ≤ 0.2
179 | PSSV | ≤ 0.2
180 | RLGQ | ≤ 0.2
181 | TRAQ | ≤ 0.2
182 | PQEN | ≤ 0.2
183 | DAHC | ≤ 0.2
184 | NMRM | ≤ 0.2
185 | CDRN | ≤ 0.2
186 | LSRA | ≤ 0.2
187 | ENSA | ≤ 0.2
188 | SHCE | ≤ 0.2
189 | DGAG | ≤ 0.2
190 | RELY | ≤ 0.2
191 | RHLW | 0.201
192 | DNTC | ≤ 0.2

Row | Variant | one-hybrid fitness for binding parS DNA
193 | IACR | ≤ 0.2
194 | SPRK | ≤ 0.2
195 | HPPY | ≤ 0.2
196 | IPSH | ≤ 0.2
197 | YSDG | ≤ 0.2
198 | TMHE | ≤ 0.2
199 | STVQ | ≤ 0.2
200 | QKHW | ≤ 0.2
201 | QDRS | ≤ 0.2
202 | GQVC | ≤ 0.2
203 | CSNC | ≤ 0.2
204 | PWVP | ≤ 0.2
205 | DMDR | ≤ 0.2
206 | IYDC | ≤ 0.2
207 | PALM | ≤ 0.2
208 | GNQD | ≤ 0.2
209 | CWCR | ≤ 0.2
210 | RHRQ | ≤ 0.2
211 | IYWR | ≤ 0.2
212 | RYYI | ≤ 0.2
213 | MLRS | ≤ 0.2
214 | NGRK | 0.211
215 | AIPN | ≤ 0.2
216 | YSMA | ≤ 0.2

Row | Variant | one-hybrid fitness for binding parS DNA
217 | DVTG | ≤ 0.2
218 | YGTY | ≤ 0.2
219 | QTTM | ≤ 0.2
220 | GCSR | ≤ 0.2
221 | TYEG | ≤ 0.2
222 | MDST | ≤ 0.2
223 | CPRN | ≤ 0.2
224 | PSDT | ≤ 0.2
225 | GSWT | ≤ 0.2
226 | AYEM | ≤ 0.2
227 | SEHR | ≤ 0.2
228 | MTTE | ≤ 0.2
229 | GSCS | ≤ 0.2
230 | RSDR | ≤ 0.2
231 | TEWG | ≤ 0.2
232 | NTPA | ≤ 0.2
233 | KQGL | ≤ 0.2
234 | RYPF | ≤ 0.2
235 | SSIS | ≤ 0.2
236 | STCH | ≤ 0.2
237 | PRRE | ≤ 0.2
238 | HRIT | ≤ 0.2
239 | IYCF | ≤ 0.2
240 | VTWR | ≤ 0.2

Row | Variant | one-hybrid fitness for binding parS DNA
241 | RTVP | ≤ 0.2
242 | NLGW | ≤ 0.2
243 | VCTR | ≤ 0.2
244 | PYAQ | ≤ 0.2
245 | FSAC | ≤ 0.2
246 | RTQW | 0.237
247 | MNAN | ≤ 0.2
248 | FKQW | ≤ 0.2
249 | LCKV | ≤ 0.2
250 | LWKS | 0.256
251 | SARW | ≤ 0.2
252 | KYIT | ≤ 0.2
253 | CYVR | ≤ 0.2
254 | IRRV | ≤ 0.2
255 | AKCS | ≤ 0.2
256 | DSIG | ≤ 0.2
257 | ILYG | ≤ 0.2
258 | GETD | ≤ 0.2
259 | PNIT | ≤ 0.2
260 | CAFA | ≤ 0.2
261 | PQNR | ≤ 0.2
262 | WLTG | ≤ 0.2
263 | LGWR | ≤ 0.2
264 | QSQA | ≤ 0.2

Row | Variant | one-hybrid fitness for binding parS DNA
265 | RRYT | 0.604
266 | KDNC | ≤ 0.2
267 | RKMP | ≤ 0.2
268 | HEWC | ≤ 0.2
269 | FYVT | ≤ 0.2
270 | QTVH | ≤ 0.2
271 | SSCR | ≤ 0.2
272 | VQMR | ≤ 0.2
273 | PRGC | ≤ 0.2
274 | YSRS | ≤ 0.2
275 | VEKG | ≤ 0.2
276 | HWNR | ≤ 0.2
277 | EYVV | ≤ 0.2
278 | AKRE | ≤ 0.2
279 | TVVW | ≤ 0.2
280 | STER | ≤ 0.2
281 | CTWL | ≤ 0.2
282 | QVRY | ≤ 0.2
283 | SDNF | ≤ 0.2
284 | LMTS | ≤ 0.2
285 | HEPW | ≤ 0.2
286 | TNTW | ≤ 0.2
287 | LPYF | ≤ 0.2
288 | RSTK | ≤ 0.2

Row | Variant | one-hybrid fitness for binding parS DNA
289 | PDMS | ≤ 0.2
290 | PCTK | ≤ 0.2
291 | STIC | ≤ 0.2
292 | TPDY | ≤ 0.2
293 | KMVC | ≤ 0.2
294 | SEHW | ≤ 0.2
295 | LRQF | ≤ 0.2
296 | VGKY | ≤ 0.2
297 | LRAF | ≤ 0.2
298 | SGQS | ≤ 0.2
299 | FEPP | ≤ 0.2
300 | LPDN | ≤ 0.2
301 | YRLC | ≤ 0.2
302 | WPAA | ≤ 0.2
303 | ISYT | ≤ 0.2
304 | PRMD | ≤ 0.2
305 | YDAV | ≤ 0.2
306 | KWQW | ≤ 0.2
